From PubChem BioAssay AID1347120 (National Center for Advancing Translational Sciences (NCATS), 2019)
The whole screen tested about 390,000 compounds, of which about 930 (0.24%) were called active. The shares of active, inactive and inconclusive entries below differ from those in the screen. Calls come from the whole dose curve; as a rule, active = well fitted activation curve with a large enough effect; inconclusive = small, poorly fitted or top-dose-only effect; inactive = no such curve, though single readings can be large or run the other way. A potency beside an inconclusive call is a rough fit, not a confirmed value.

Assay: qHTS for Suppressors of FUS Proteinopathy: Primary screen using FUS-linked yeast assay; note: nearly all actives have a fitted effect of over 55% in size;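 for growth rescue (activation): plate controls were DMSO vehicle for no effect and reference control for full effect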
Conditions: S. cerevisiae FUS-expressing, OD600, 24 h; Potency: growth rescue; growth rescue (activation): at 76.6 µM (top of the series)
Outline: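 Quantitative HTS measuring growth restoration of FUS-toxic yeast. Galactose-induced cells (OD 0.005) were exposed 24hr at 30C to compounds at several concentrations, then absorbance at 600 nm was recorded.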
Potency is the fitted concentration of half-maximal effect; tags give direction and shape of the fitted curve.

Row | Compound | Potency | growth rescue (activation)
1 | Cc1cc(C)n2nc3nc4c(cc3c2n1)CCCC4 | inactive | 
2 | CC1(Cc2cccc(C#N)c2)C(=O)Nc2ccc(-c3cccc(C(F)(F)F)c3)cc21 (configuration not stated) | inconclusive: 11.2 µM [activator, partial curve, poor fit] | 
3 | COc1ccc2[nH]cc(CCNC(=O)Cc3ccc(Cl)cc3)c2c1 | inconclusive: 14.1 µM [activator, partial curve, poor fit] | 
4 | CCC(Sc1nc2nccnc2c(=O)n1Cc1ccccc1Cl)C(=O)NC1CCCCC1 (configuration not stated) | inactive | 
5 | Cc1ccc([C@H]2N[C@]3(CCCN(Cc4ccc(Cl)cc4)C3=O)[C@H]3C(=O)N(Cc4ccccc4)C(=O)[C@@H]23)cc1 | inconclusive: 25.1 µM [activator, partial curve] | 
6 | CC(C)=CCC/C(C)=C/CNC(=O)C[C@H]1C[C@H](C(=O)N2CCOCC2)[C@@]2(C)c3[nH]c4cc(-c5ccco5)ccc4c3CCN2C1=O | inconclusive: 14.1 µM [activator, partial curve, poor fit] | 
7 | COc1ccccc1NC(=O)CSc1nc2n[nH]c(C)c2c(=N)n1-c1ccccc1Cl | inconclusive: 39.8 µM [activator, single point] | 
8 | COc1ccc(NC(=O)c2c(NCc3ccc(C)o3)sc3c2CCCCC3)c(OC)c1 | inconclusive: 25.1 µM [activator, partial curve] | 
9 | CCn1c(=O)c2cc(C(=O)Nc3cccc(C(F)(F)F)c3)sc2c2ccccc21 | inactive | 
10 | O=S(=O)(c1cccc(COc2c(Cl)cccc2Cl)c1)N1CCOCC1 | inconclusive: 50.1 µM [activator, single point] | 
11 | CN(C(=O)CSc1nc2ccc(NC(=O)c3cccc(F)c3)cc2s1)c1ccccc1 | inconclusive: 22.4 µM [activator, partial curve, poor fit] | 
12 | CCN(CC)C(=O)Cn1nnc(-c2ccc(S(C)(=O)=O)cc2)n1 | inconclusive: 28.2 µM [activator, single point] | 
13 | CC(=O)Nc1ccc(NC(=O)CSc2nnc(-c3n[nH]c4c3CCC4)n2N)cc1 | inactive | 
14 | CC1(C)CC[C@]2(C(=O)O)CC[C@]3(CO)C(=CCC4[C@@]5(C)C[C@H](O)[C@H](O)[C@@](C)(C(=O)O)C5CC[C@]43C)[C@@H]2C1 (some centres not stated) | inconclusive: 50.1 µM [activator, single point] | 
15 | COc1ccc(Cn2c(C(=O)O)c(CNCc3ccc(OC)cc3OC)c3ccc(C)cc32)cc1 | inactive | 
16 | Cc1cc2c(=O)n(Cc3ccco3)c(SCC(=O)NCc3ccco3)nc2s1 | inconclusive: 35.5 µM [activator, partial curve, poor fit] | 
17 | CC(C)OCCCn1c(SCc2ccccc2C#N)nc2c(sc3ccccc32)c1=O | inactive | 
18 | Cc1cc(C(=O)C(C)OC(=O)C2=NNC(=O)CC2)c(C)n1-c1ccc(OC(F)F)cc1 (configuration not stated) | inconclusive: 35.5 µM [activator, single point] | 
19 | CCOc1ccc(NC(=O)C(=O)NCCc2csc(-c3ccc(F)cc3)n2)cc1 | inactive | 
20 | Cn1cc(S(=O)(=O)N2CCCCCC2)cc1C(=O)N1CCN(c2ccc(F)cc2)CC1 | inconclusive: 28.2 µM [activator, single point] | 
21 | Cc1ccc(NC(=O)C(C)OC(=O)CCC2CCCCC2)cc1 (configuration not stated) | inconclusive: 50.1 µM [activator, single point] | 

Row | Compound | Potency | growth rescue (activation)
22 | NS(=O)(=O)c1ccc(CCNC(=O)C2COc3ccccc3C2)cc1 (configuration not stated) | inactive | 
23 | COc1ccc2[nH]c3c(c2c1)CCN[C@]31C(=O)N(Cc2cn(Cc3ccccc3)nn2)c2ccc(F)cc21 | inconclusive: 28.2 µM [activator, single point] | 
24 | COc1ccc(NC(=O)CSc2nc3c(c(=O)n2-c2ccccc2OC)SCC3)cc1 | inconclusive: 44.7 µM [activator, single point] | 
25 | COC(=O)c1ccc(/C=C/C(=O)O)cc1 | inactive | 
26 | C=CCNC(=O)CSc1nc2c(c(=O)[nH]1)CCCC2 | inactive | 
27 | O=C(COc1ccccc1)NCc1ccc2c(c1)CCN2C(=O)c1ccc(F)cc1 | inconclusive: 25.1 µM [activator, single point] | 
28 | COc1cc(NC(=O)CCn2c(-c3ccccc3)cc(C(C)=O)c2C)cc(OC)c1 | inactive | 
29 | Cc1noc(NS(=O)(=O)c2ccc(N/C=C/C(=O)c3cccnc3)cc2)c1C | inactive | 
30 | Cc1ccc(NCc2nnc(SCC(=O)OC3CCCCC3)o2)c(C)c1 | inconclusive: 28.2 µM [activator, single point] | 
31 | Cc1cccc(CNC(=O)c2oc3c(c2C)-c2nn(Cc4ccccc4Cl)cc2CC3)c1 | inconclusive: 25.1 µM [activator, single point] | 
32 | Cc1ccc(Cl)cc1N1CCN(C(=O)C2CCN(S(=O)(=O)c3c(C)nn(C)c3C)CC2)CC1 | inconclusive: 35.5 µM [activator, partial curve, poor fit] | 
33 | CCc1ccc(C(=O)c2cn(CC(=O)Nc3ccc(F)c(F)c3)c3cc(OC)c(OC)cc3c2=O)cc1 | inconclusive: 50.1 µM [activator, single point] | 
34 | CCn1c(=O)c(CCC(=O)NCC2CCCO2)c(C)c2c(C)nn(-c3ccccc3)c21 (configuration not stated) | inconclusive: 25.1 µM [activator, single point] | 
35 | COc1ccc(Cl)cc1NC(=O)c1ccc2nc(Cc3ccccc3)oc2c1 | inconclusive: 35.5 µM [activator, partial curve, poor fit] | 
36 | O=C1C[C@H](C(=O)Nc2ccc(Cl)cc2)[C@@H](c2ccccc2)O1 | inactive | 
37 | Cc1ccc(N2CC(C(=O)Nc3ccc(S(=O)(=O)Nc4ncccn4)cc3)CC2=O)cc1C (configuration not stated) | inactive | 
38 | CC(/C=C/C=C/c1ccccc1)=N/NC(=O)CNc1ccc(C)cc1 | inconclusive: 39.8 µM [activator, partial curve, poor fit] | 
39 | O=C(CC1N=C2c3ccccc3N=C(SCc3ccc(Cl)cc3)N2C1=O)NCc1ccco1 (configuration not stated) | inconclusive: 35.5 µM [activator, single point] | 
40 | CCC(C(=O)Nc1ccc(C(=O)OC)cc1)n1c(=O)c(-c2ccccc2NC(C)=O)nc2ccccc21 (configuration not stated) | inconclusive: 35.5 µM [activator, single point] | 
41 | CC(C)N(C(=O)c1ccc(C(=O)Nc2ccc([N+](=O)[O-])cc2)cc1)C(C)C | inactive | 
42 | Cc1cccc(N2C(=O)N3[C@H](c4ccc(Cl)cc4)[C@@H]4C(=O)N(C5CCCCC5)C(=O)[C@@H]4[C@]3(Cc3ccc(Cl)cc3)C2=O)c1 | inconclusive: 7.08 µM [activator, full curve] | 

Row | Compound | Potency | growth rescue (activation)
43 | CCOc1ccc(-n2c(SCC(=O)c3ccc4ccccc4c3)nnc2-c2ccc(OC)cc2)cc1 | inconclusive: 20 µM [activator, partial curve, poor fit] | 
44 | CCOc1cccc2cc(-c3nc(-c4ccccc4C)no3)c(=O)oc12 | inactive | 
45 | COC(=O)[C@]12C[C@H](CC(=O)NCc3cccc4ccccc34)C(=O)N(Cc3ccco3)C1=C[C@H](COCc1ccccc1)O[C@@H]2C | inconclusive: 35.5 µM [activator, single point] | 
46 | COc1cc2c(cc1OC)CN(C(=O)/C=C/c1ccccc1[N+](=O)[O-])CC2 | inactive | 
47 | COc1cccc(C(O)c2nc(-c3cccc(C(C)C)c3)cs2)c1 (configuration not stated) | inactive | 
48 | COc1ccc(NCc2cc3cc4c(cc3n(CC(=O)Nc3ccc(F)cc3F)c2=O)OCO4)cc1 | inconclusive: 35.5 µM [activator, single point] | 
49 | Cc1sc2nc(CN3CCCC3)nc(N3CCN(S(=O)(=O)c4cccs4)CC3)c2c1C |  | inconclusive: 153% [activator]
50 | CCOC(=O)c1cnc2c(Cl)cccc2c1NCCN1CCOCC1 | inconclusive: 3.16 µM [activator, partial curve, poor fit] | 
51 | CC1=C(C(=O)OC2CCCCCC2)C(c2c(F)cccc2Cl)CC(=O)N1 (configuration not stated) | inactive | 
52 | CCC(NC(=O)CCc1c(C)c2cc3c(C)c(C)oc3cc2oc1=O)C(=O)N[C@@H](Cc1ccccc1)C(=O)O (some centres not stated) | active: 28.2 µM | 
53 | Cc1ccc(NC(=O)N2CCC(c3nc4c(nnn4Cc4cccc(Cl)c4)c(=O)[nH]3)CC2)cc1 | inconclusive: 31.6 µM [activator, single point] | 
54 | COc1ccc(S[C@]2(C(=O)N(C)C)CC(=O)N(c3ccc(C#N)cc3)[C@@H]2c2ccc(OC)cc2)cc1 | inconclusive: 28.2 µM [activator, single point] | 
55 | CSCc1cc(N2CCOCC2)nc(SCc2ccc(Cl)cc2Cl)n1 | inconclusive: 12.6 µM [activator, partial curve] | 
56 | COc1cccc(-n2c(=O)c3c(C)c(C(=O)N(C)C)sc3n(Cc3ccc(F)cc3Cl)c2=O)c1 | inactive | 
57 | CN(c1ccccc1)S(=O)(=O)c1ccc(C(=O)Nc2cccc(S(=O)(=O)N3CCOCC3)c2)cc1 | inconclusive: 22.4 µM [activator, partial curve] | 
58 | COc1cccc(C(=O)Nc2cccc(NC(=O)c3ccccc3Cl)c2)c1 | inconclusive: 28.2 µM [activator, single point] | 
59 | CCCCCc1cc(=O)oc2c(C(CCN3CCCCC3)c3cc(OC)c(OC)c(OC)c3)c(OC)cc(OC)c12 (configuration not stated) | inconclusive: 14.1 µM [activator, partial curve] | 
60 | COc1ccc(OC)c(S(=O)(=O)N2CCCC(C(=O)Nc3c(C)n(C)n(-c4ccccc4)c3=O)C2)c1 (configuration not stated) | inactive | 
61 | CSc1nc(N2CCCC2)c2c(c1C#N)CC(C)(C)OC2 | inconclusive: 3.55 µM [activator, single point] | 
62 | CCOC(=O)c1cccc(NC(=O)c2cc3c(=O)n(Cc4ccccc4)ccc3nc2C)c1 | inconclusive: 31.6 µM [activator, partial curve, poor fit] | 
